The other results are listed elsewhere or left out. The energies were worked out here from pooled read counts, against the library average; single values are noisy.
target: T1, Pho4 (S. cerevisiae) (UniProt P07270); assay: relative binding free energy (BET-seq); higher = weaker binding; conditions: reference: library average
T1 sequence: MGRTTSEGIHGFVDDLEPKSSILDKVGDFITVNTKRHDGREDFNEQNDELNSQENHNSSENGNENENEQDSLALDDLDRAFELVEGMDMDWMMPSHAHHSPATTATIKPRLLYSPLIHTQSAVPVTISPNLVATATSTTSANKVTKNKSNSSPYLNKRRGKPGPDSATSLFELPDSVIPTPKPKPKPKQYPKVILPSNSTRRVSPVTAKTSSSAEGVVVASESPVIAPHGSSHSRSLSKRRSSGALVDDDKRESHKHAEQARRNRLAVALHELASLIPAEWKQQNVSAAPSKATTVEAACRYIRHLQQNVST

Sequence	relative binding free energy
TGTGTCACGTGGGCAC	-0.08 kcal/mol
CTTAGCACGTGAGTGA	0.06 kcal/mol
TCGTACACGTGATTTT	0.17 kcal/mol
TTTACCACGTGAGGTA	0.37 kcal/mol
ATGAGCACGTGCAGTT	0.04 kcal/mol
ACGGTCACGTGTTCTG	0.25 kcal/mol
TAGAGCACGTGGGCTT	-0.3 kcal/mol
TGACCCACGTGGGTGG	-0.2 kcal/mol
GGCTGCACGTGTGTAT	0.18 kcal/mol
TGTGTCACGTGTTTTC	0.18 kcal/mol
GAAATCACGTGTAGGG	0.1 kcal/mol
CTGTCCACGTGTGTGA	0.21 kcal/mol
TGTAACACGTGGGCTG	-0.15 kcal/mol
TTTTCCACGTGTTGTG	0.03 kcal/mol
TGAAGCACGTGGTGTT	-0.16 kcal/mol
TGGATCACGTGGGATA	0.02 kcal/mol
TAGGACACGTGGCGTG	-0.08 kcal/mol
GTATGCACGTGTTCGT	0.08 kcal/mol
AAATGCACGTGAGTGG	0.14 kcal/mol
GTGTTCACGTGGGGGG	0.22 kcal/mol
CATGGCACGTGGCGTA	-0.19 kcal/mol
GTGTGCACGTGAGTGC	0.15 kcal/mol
GATATCACGTGGTGTG	0.07 kcal/mol

Sequence	relative binding free energy
GTTGTCACGTGTCTGA	0.08 kcal/mol
TGTATCACGTGAGTTT	0.3 kcal/mol
GAGATCACGTGTTGAT	0.32 kcal/mol
GGACGCACGTGGGTGT	-0.22 kcal/mol
GCCGGCACGTGAATGG	0.4 kcal/mol
TAATTCACGTGTGGTA	0.25 kcal/mol
TTTTACACGTGACATG	0.17 kcal/mol
TATATCACGTGTAGGT	0.21 kcal/mol
TTGTTCACGTGCGATA	0.26 kcal/mol
TTGATCACGTGAATGT	0.4 kcal/mol
GTTGTCACGTGGTGGC	0.23 kcal/mol
TTTTTCACGTGCTATT	0.16 kcal/mol
TAATCCACGTGTGATT	0.21 kcal/mol
CTGTTCACGTGGCGGG	0.15 kcal/mol
TCAGTCACGTGTTATT	0.21 kcal/mol
GGAAGCACGTGTGTTA	-0.23 kcal/mol
AGAGGCACGTGTTGTA	-0.15 kcal/mol
TCCGGCACGTGAGGGT	0.15 kcal/mol
ATGTGCACGTGAAGAT	0.28 kcal/mol
GTGCGCACGTGTGGGC	-0.03 kcal/mol
GGGTGCACGTGTTATC	0.08 kcal/mol
TTCGGCACGTGGCGCT	-0.01 kcal/mol
TCCGTCACGTGGGTGG	-0.03 kcal/mol

Sequence	relative binding free energy
TTCTTCACGTGTAGGC	0.33 kcal/mol
TAGTGCACGTGTGTCA	-0.12 kcal/mol
ATCAGCACGTGGGGGA	-0.19 kcal/mol
GGATACACGTGGGAGA	0.1 kcal/mol
GCGGGCACGTGTGGGG	0.01 kcal/mol
GTAACCACGTGTGGTG	0.1 kcal/mol
TCTTTCACGTGGTTAT	0.1 kcal/mol
TTTTCCACGTGTGGTC	0.06 kcal/mol
AGGTACACGTGGAGGA	0.12 kcal/mol
GTCTGCACGTGTGAAG	0.08 kcal/mol
AGAAACACGTGAGGGG	0.16 kcal/mol
TCGAGCACGTGTAGCG	0.03 kcal/mol
AGGTCCACGTGGGATG	0 kcal/mol
ATGTGCACGTGAATGC	0.28 kcal/mol
CGTATCACGTGGGTGT	-0.02 kcal/mol
AGTGGCACGTGGTTCG	-0.23 kcal/mol
TTGTGCACGTGAGCCG	0.2 kcal/mol
CATGACACGTGATGGG	0.09 kcal/mol
TTGTTCACGTGTTTCT	0.13 kcal/mol
TAGGTCACGTGTCGGA	0.14 kcal/mol
ATCGGCACGTGTAAGG	0.07 kcal/mol
CGCGTCACGTGTGGTG	0.1 kcal/mol
ATCTGCACGTGTTTAT	-0.07 kcal/mol

Sequence	relative binding free energy
GGCGACACGTGGCAGT	0.15 kcal/mol
GGAAACACGTGAGTGC	0.4 kcal/mol
TTACGCACGTGTGGAA	0.02 kcal/mol
GGTGACACGTGGAAAG	0.27 kcal/mol
GCGTGCACGTGGTTAG	-0.05 kcal/mol
TGTAACACGTGGTGAG	-0.09 kcal/mol
TGGTTCACGTGCGGCA	0.22 kcal/mol
GTGGGCACGTGTTTTA	-0.06 kcal/mol
TTGTGCACGTGGCTAT	-0.08 kcal/mol
CTGATCACGTGGAGGG	0.14 kcal/mol
AGTGTCACGTGCAGGA	0.01 kcal/mol
GTGGCCACGTGGAGTG	0.02 kcal/mol
CGGGGCACGTGAGGCA	0.1 kcal/mol
AAGTGCACGTGTCGTA	0.03 kcal/mol
AGCTTCACGTGGTTTA	0.14 kcal/mol
TTGTTCACGTGAAGAT	0.43 kcal/mol
ATGATCACGTGGTAAG	0.09 kcal/mol
ATCAGCACGTGGTAGT	-0.17 kcal/mol
ATAGACACGTGTTGTA	0.02 kcal/mol
GTGGACACGTGGTATT	-0.05 kcal/mol
GTTGGCACGTGTTCTG	-0.07 kcal/mol
GATGTCACGTGTCTGA	0.33 kcal/mol
GTCGGCACGTGAAGTG	0.32 kcal/mol

Sequence	relative binding free energy
TGCATCACGTGGGATG	-0.11 kcal/mol
CGGTGCACGTGATAGG	0 kcal/mol
GTATACACGTGGGGTG	0.01 kcal/mol
TTAGTCACGTGCTATG	-0.1 kcal/mol
GGATGCACGTGTAATG	0.08 kcal/mol
TGTTACACGTGGGATA	0.04 kcal/mol
GGCAGCACGTGGGGTT	-0.15 kcal/mol
TATTACACGTGGGAAT	-0.02 kcal/mol
TTTTTCACGTGACTAG	0.24 kcal/mol
CGGTGCACGTGTAGGA	-0.07 kcal/mol
GGCGTCACGTGTTATG	0.21 kcal/mol
CTTGGCACGTGTAATA	-0.03 kcal/mol
CGTGGCACGTGGGGAT	-0.24 kcal/mol
TTAGACACGTGGTGGC	0.03 kcal/mol
TTCTACACGTGTGATT	0.17 kcal/mol
CTGTGCACGTGCGTGC	-0.03 kcal/mol
CGGATCACGTGGTTTT	0.17 kcal/mol
TAGGTCACGTGGAATT	0.21 kcal/mol
GCGGTCACGTGGGGTC	0.05 kcal/mol
AGAATCACGTGGTGAA	0.16 kcal/mol
TATGACACGTGTTATT	0.03 kcal/mol
GGGTTCACGTGGTGAG	0.31 kcal/mol
TAACGCACGTGTTGTA	-0.05 kcal/mol
